# Measurements from the supplement of paper PMC10037445.
# Over roughly 2,900 compounds, “IRF Lucia reporter activity, fold change vs agonist alone” has its median near 0.9; the highest 2% begin near 2.8. This is one part of the list.
# How the values were obtained:
# RAW-Dual [1] = test: IRF Lucia reporter activity, fold change vs agonist alone; higher = enhanced IRF activity; settings: library stock concentration (final ~1000-fold dilution): 10 mM, agonist: MPLA (TLR4) […]
# Method in brief: (§1)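 Supernatant from RAW-Dual macrophages was read after 20 hours for IRF by QuantiLuc luminescence and for NF-κB by QuantiBlue absorbance at 620 nm. The cells (50,000 cells/well in DMEM, 384-well plates, 37 °C, 5% CO2) had received 50 nL of library stock by pin tool and, 1 h later, a PRR agonist. Reporter activity is expressed relative to agonist-alone wells as fold change, and wells were flagged cytotoxic if IncuCyte confluency was under 70% of agonist controls in both mask sets.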
# RAW-Dual [2] = test: IRF Lucia reporter activity, fold change vs agonist alone; cytotoxicity flag (confluency mask): not cytotoxic; higher = enhanced IRF activity
# Method in brief: as §1
# RAW-Dual [3] = test: IRF Lucia reporter activity, fold change vs agonist alone; cytotoxicity flag (confluency mask): cytotoxic (confluency <70% of control); higher = enhanced IRF activity
# Method in brief: as §1
# [4] = cytotoxicity flag (confluency mask): not cytotoxic
# [5] = agonist: 3'3'-cGAMP (STING) 10 ug/mL
smiles,measurement,setting,value
CCN1CCN(c2ccc(Nc3cc(N(C)C(=O)Nc4c(Cl)c(OC)cc(OC)c4Cl)ncn3)cc2)CC1,IRF Lucia reporter activity,RAW-Dual [1]; [4],1
CCN1CCN(c2ccc(Nc3cc(N(C)C(=O)Nc4c(Cl)c(OC)cc(OC)c4Cl)ncn3)cc2)CC1 (library stock concentration (final ~1000-fold dilution): 10 mM),IRF Lucia reporter activity,RAW-Dual [2]; [5],1.05
same,IRF Lucia reporter activity,RAW-Dual [2]; agonist: LPS (TLR4) 0.1 ug/mL,0.312
Oc1cc(O)cc(/C=C/c2ccc(O)c(O)c2)c1,IRF Lucia reporter activity,RAW-Dual [1]; [4],0.636
Oc1cc(O)cc(/C=C/c2ccc(O)c(O)c2)c1 (library stock concentration (final ~1000-fold dilution): 10 mM),IRF Lucia reporter activity,RAW-Dual [2]; [5],0.253
same,IRF Lucia reporter activity,RAW-Dual [2]; agonist: LPS (TLR4) 0.1 ug/mL,0.481
Nc1nnc(-c2cccc(Cl)c2Cl)c(N)n1,IRF Lucia reporter activity,RAW-Dual [1]; [4],1.07
Nc1nnc(-c2cccc(Cl)c2Cl)c(N)n1 (library stock concentration (final ~1000-fold dilution): 10 mM),IRF Lucia reporter activity,RAW-Dual [2]; [5],1.1
same,IRF Lucia reporter activity,RAW-Dual [2]; agonist: LPS (TLR4) 0.1 ug/mL,0.901
NCCNc1ccc(NCCN)c2c1C(=O)c1ccncc1C2=O.O=C(O)/C=C\C(=O)O.O=C(O)/C=C\C(=O)O (library stock concentration (final ~1000-fold dilution): 10 mM),IRF Lucia reporter activity,RAW-Dual [3]; [5],0.256
same,IRF Lucia reporter activity,RAW-Dual [3]; agonist: LPS (TLR4) 0.1 ug/mL,0.151
NCCNc1ccc(NCCN)c2c1C(=O)c1ccncc1C2=O.O=C(O)/C=C\C(=O)O.O=C(O)/C=C\C(=O)O,IRF Lucia reporter activity,RAW-Dual [1]; cytotoxicity flag (confluency mask): cytotoxic (confluency <70% of control),0.174
CN1CCCC(n2nc(Cc3ccc(Cl)cc3)c3ccccc3c2=O)CC1.Cl (stereo not drawn) (library stock concentration (final ~1000-fold dilution): 10 mM),IRF Lucia reporter activity,RAW-Dual [2]; [5],0.982
same,IRF Lucia reporter activity,RAW-Dual [2]; agonist: LPS (TLR4) 0.1 ug/mL,1.62
CN1CCCC(n2nc(Cc3ccc(Cl)cc3)c3ccccc3c2=O)CC1.Cl (stereo not drawn),IRF Lucia reporter activity,RAW-Dual [1]; [4],1.12
CN(C)CCCN1c2ccccc2Sc2ccccc21.Cl,IRF Lucia reporter activity,RAW-Dual [1]; [4],1.49
CN(C)CCCN1c2ccccc2Sc2ccccc21.Cl (library stock concentration (final ~1000-fold dilution): 10 mM),IRF Lucia reporter activity,RAW-Dual [2]; [5],0.728
same,IRF Lucia reporter activity,RAW-Dual [2]; agonist: LPS (TLR4) 0.1 ug/mL,1.08
CN(C)C(=O)c1cc2cnc(Nc3ccc(N4CCNCC4)cn3)nc2n1C1CCCC1,IRF Lucia reporter activity,RAW-Dual [1]; [4],1.03
CN(C)C(=O)c1cc2cnc(Nc3ccc(N4CCNCC4)cn3)nc2n1C1CCCC1 (library stock concentration (final ~1000-fold dilution): 10 mM),IRF Lucia reporter activity,RAW-Dual [2]; [5],0.748
same,IRF Lucia reporter activity,RAW-Dual [2]; agonist: LPS (TLR4) 0.1 ug/mL,0.74
C=CC(C)(O)CCC=C(C)C (stereo not drawn) (library stock concentration (final ~1000-fold dilution): 10 mM),IRF Lucia reporter activity,RAW-Dual [2]; [5],1.01
same,IRF Lucia reporter activity,RAW-Dual [2]; agonist: LPS (TLR4) 0.1 ug/mL,1.3
C=CC(C)(O)CCC=C(C)C (stereo not drawn),IRF Lucia reporter activity,RAW-Dual [1]; [4],1.09
CC(C)CC(NC(=O)CNC(=O)c1cc(Cl)ccc1Cl)B1OC(=O)CC(CC(=O)O)(C(=O)O)O1 (stereo not drawn) (library stock concentration (final ~1000-fold dilution): 10 mM),IRF Lucia reporter activity,RAW-Dual [2]; [5],1.05
same,IRF Lucia reporter activity,RAW-Dual [2]; agonist: LPS (TLR4) 0.1 ug/mL,1.29
CC(C)CC(NC(=O)CNC(=O)c1cc(Cl)ccc1Cl)B1OC(=O)CC(CC(=O)O)(C(=O)O)O1 (stereo not drawn),IRF Lucia reporter activity,RAW-Dual [1]; [4],1.09
Cc1cc(Nc2cc(CN3CCOCC3)c3nc(C)c(Cc4ccc(Cl)cc4F)n3n2)[nH]n1 (library stock concentration (final ~1000-fold dilution): 10 mM),IRF Lucia reporter activity,RAW-Dual [2]; [5],0.996
same,IRF Lucia reporter activity,RAW-Dual [2]; agonist: LPS (TLR4) 0.1 ug/mL,1.43
Cc1cc(Nc2cc(CN3CCOCC3)c3nc(C)c(Cc4ccc(Cl)cc4F)n3n2)[nH]n1,IRF Lucia reporter activity,RAW-Dual [1]; [4],1.08
CN1CCN(c2ccc(Nc3cc(-c4cccc(-n5ccc6cc(C7CC7)cc(F)c6c5=O)c4CO)cn(C)c3=O)nc2)CC1 (library stock concentration (final ~1000-fold dilution): 10 mM),IRF Lucia reporter activity,RAW-Dual [2]; [5],0.999
same,IRF Lucia reporter activity,RAW-Dual [2]; agonist: LPS (TLR4) 0.1 ug/mL,2.24
CN1CCN(c2ccc(Nc3cc(-c4cccc(-n5ccc6cc(C7CC7)cc(F)c6c5=O)c4CO)cn(C)c3=O)nc2)CC1,IRF Lucia reporter activity,RAW-Dual [1]; [4],1.01
CN(CC1COCCO1)S(=O)(=O)Nc1ccc2ccc3ncc(-c4cnn(C)c4)cc3c(=O)c2c1 (stereo not drawn),IRF Lucia reporter activity,RAW-Dual [1]; [4],0.63
CN(CC1COCCO1)S(=O)(=O)Nc1ccc2ccc3ncc(-c4cnn(C)c4)cc3c(=O)c2c1 (stereo not drawn) (library stock concentration (final ~1000-fold dilution): 10 mM),IRF Lucia reporter activity,RAW-Dual [2]; [5],0.306
same,IRF Lucia reporter activity,RAW-Dual [2]; agonist: LPS (TLR4) 0.1 ug/mL,0.736
Cc1c(C)c2c(c(C)c1O)CCC(C)(CCCC(C)CCCC(C)CCCC(C)C)O2 (stereo not drawn) (library stock concentration (final ~1000-fold dilution): 10 mM),IRF Lucia reporter activity,RAW-Dual [2]; [5],1.05
same,IRF Lucia reporter activity,RAW-Dual [2]; agonist: LPS (TLR4) 0.1 ug/mL,1.48
Cc1c(C)c2c(c(C)c1O)CCC(C)(CCCC(C)CCCC(C)CCCC(C)C)O2 (stereo not drawn),IRF Lucia reporter activity,RAW-Dual [1]; [4],1.03
CN1CCN(C(c2ccccc2)c2ccccc2)CC1.Cl.Cl (library stock concentration (final ~1000-fold dilution): 10 mM),IRF Lucia reporter activity,RAW-Dual [2]; [5],0.942
same,IRF Lucia reporter activity,RAW-Dual [2]; agonist: LPS (TLR4) 0.1 ug/mL,0.95
CN1CCN(C(c2ccccc2)c2ccccc2)CC1.Cl.Cl,IRF Lucia reporter activity,RAW-Dual [1]; [4],0.977
C#CCNC1CCc2ccccc21.CS(=O)(=O)O (stereo not drawn),IRF Lucia reporter activity,RAW-Dual [1]; [4],0.958
